# PubChem BioAssay AID1347165 (National Center for Advancing Translational Sciences (NCATS), 2019)
# “And” between values parts separate entries of the source, which are not always exact repeats. Equal values may be shown once. The whole screen tested about 220,000 compounds, of which about 5,700 (2.6%) were called active. This list was built around the results that the source calls inconclusive (neither active nor inactive); the mix of calls is not that of the screen. Calls follow the shape of the dose curve; as a rule, active = well fitted inhibition curve with a large enough effect; inconclusive = small, poorly fitted or top-dose-only effect; inactive = no such curve, though single readings can be large or run the other way. Potencies of inconclusive entries are doubtful fits and often do not repeat.
# Target: Lysine-specific demethylase 5B (Homo sapiens) (UniProt Q9UGL1)
# Chain of UniProt Q9UGL1 (Q9UGL1 whole entry, looked up): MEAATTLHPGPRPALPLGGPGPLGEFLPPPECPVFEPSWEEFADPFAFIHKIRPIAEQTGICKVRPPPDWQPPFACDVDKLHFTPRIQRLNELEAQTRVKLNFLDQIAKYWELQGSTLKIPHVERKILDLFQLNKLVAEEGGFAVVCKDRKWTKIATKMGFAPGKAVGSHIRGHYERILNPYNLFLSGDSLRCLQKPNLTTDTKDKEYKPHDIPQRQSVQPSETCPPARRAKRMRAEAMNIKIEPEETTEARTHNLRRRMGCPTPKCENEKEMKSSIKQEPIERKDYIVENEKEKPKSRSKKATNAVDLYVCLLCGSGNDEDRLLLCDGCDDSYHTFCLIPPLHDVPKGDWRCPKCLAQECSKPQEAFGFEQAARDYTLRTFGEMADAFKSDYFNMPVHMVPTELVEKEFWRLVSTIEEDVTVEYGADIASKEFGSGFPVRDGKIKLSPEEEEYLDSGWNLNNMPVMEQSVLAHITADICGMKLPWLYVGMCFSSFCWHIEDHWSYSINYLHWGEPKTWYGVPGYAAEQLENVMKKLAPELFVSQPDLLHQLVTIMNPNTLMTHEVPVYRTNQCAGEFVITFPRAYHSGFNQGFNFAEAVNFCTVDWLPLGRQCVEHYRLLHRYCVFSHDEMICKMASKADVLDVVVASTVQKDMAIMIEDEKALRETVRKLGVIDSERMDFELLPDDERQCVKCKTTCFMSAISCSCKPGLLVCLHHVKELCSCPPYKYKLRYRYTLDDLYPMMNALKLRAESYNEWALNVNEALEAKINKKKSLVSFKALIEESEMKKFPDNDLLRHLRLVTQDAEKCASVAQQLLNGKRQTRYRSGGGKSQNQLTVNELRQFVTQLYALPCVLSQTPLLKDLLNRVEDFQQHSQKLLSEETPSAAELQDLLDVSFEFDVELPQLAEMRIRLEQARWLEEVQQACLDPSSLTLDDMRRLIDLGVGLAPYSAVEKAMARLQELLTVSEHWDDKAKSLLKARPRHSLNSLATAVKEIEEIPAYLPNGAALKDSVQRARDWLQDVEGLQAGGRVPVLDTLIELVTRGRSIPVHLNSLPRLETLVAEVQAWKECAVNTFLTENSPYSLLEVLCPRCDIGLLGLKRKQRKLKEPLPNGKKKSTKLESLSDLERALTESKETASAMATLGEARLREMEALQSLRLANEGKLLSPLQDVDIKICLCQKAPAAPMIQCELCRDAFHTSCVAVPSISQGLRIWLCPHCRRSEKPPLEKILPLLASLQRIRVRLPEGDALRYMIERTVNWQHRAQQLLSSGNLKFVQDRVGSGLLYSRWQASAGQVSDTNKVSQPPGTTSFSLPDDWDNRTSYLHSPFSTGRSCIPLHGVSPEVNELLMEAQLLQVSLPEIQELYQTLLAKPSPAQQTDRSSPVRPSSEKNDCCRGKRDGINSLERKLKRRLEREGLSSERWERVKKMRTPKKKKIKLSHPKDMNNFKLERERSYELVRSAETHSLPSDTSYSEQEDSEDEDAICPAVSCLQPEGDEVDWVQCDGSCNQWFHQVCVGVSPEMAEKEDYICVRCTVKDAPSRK
# Experiment: Primary screen for KDM5B Histone Demethylases FDH-coupled qHTS; also: nearly all actives have a fitted effect of over 70% in size; as to activity change, negative = inhibition: 0% is about no effect
# Details: FDH-coupled NADH fluorescence (FDH is formaldehyde dehydrogenase); activity change, negative = inhibition: at 57.7 µM (top of the series) unless noted
# Summary of the method: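 qHTS format, multiple compound concentrations. Buffer 50 mM HEPES pH 7.5/0.01% Tween-20; 200 nM KDM5BΔAP final; 10 min compound preincubation; substrate-mix levels 12.5 µM peptide, 25 µM α-KG, 0.25 mM NAD⁺; 30 min RT; ΔRFU.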
# Potency is read from the fitted curve at half-maximal effect; tags tell the direction and shape of the fitted curve.
SMILES,Potency,"activity change, negative = inhibition"
O=C(CCC1CCCN(S(=O)(=O)c2ccccc2F)C1)NCCc1ccccc1 (stereo not drawn),"inconclusive: 12.6 µM [inhibitor, partial curve]",–
O=C(c1ccc2c(c1)N(Cc1ccc(Cl)cc1)C(=O)c1ccccc1S2=O)N1CCOCC1 (stereo not drawn),"inconclusive: 1.58 µM [inhibitor, partial curve, poor fit]",–
C/C(=N/NC(=S)Nc1ccc(Cl)cc1)c1ccc(Br)cc1,"inconclusive: 39.8 µM [inhibitor, single point]",–
COc1ccc2oc(=O)cc(CN3CCN(Cc4ccccc4)CC3)c2c1,"inconclusive: 25.1 µM [inhibitor, partial curve, poor fit] and inconclusive: 22.4 µM [inhibitor, single point]",–
Cc1ccc(S(=O)(=O)N2CCN(c3ccc(NCc4ccccc4)nn3)CC2)cc1C,"inconclusive: 12.6 µM [inhibitor, partial curve, poor fit]",–
CC(C)N1CCc2c(C#N)c(NCc3ccccc3)n3cnnc3c2C1,"inconclusive: 22.4 µM [inhibitor, single point]",–
CCC1Oc2ccc(NC(=O)c3c(F)cccc3F)cc2CN(Cc2ccc(F)cc2Cl)C1=O (stereo not drawn),"inconclusive: 15.8 µM [inhibitor, partial curve, poor fit]",–
O=C(Nc1ccc[nH]c1=O)c1cc[n+]([O-])cc1,"inconclusive: 39.8 µM [inhibitor, single point]",–
C[S+](=O)([O-])N1CCN(c2nc3ncccc3o2)CC1,"inconclusive: 28.2 µM [inhibitor, partial curve, poor fit]",–
COc1ccc(CC2CCOC3(CCN(C(=O)Nc4ccccc4F)CC3)C2)cc1 (stereo not drawn),inactive,–
CC(C)(C)c1[nH]nc(C(=O)O)c1Br,inactive,–
CCCC(=O)N1CC2(CCCN2CC2CC2)Cc2ccccc21 (stereo not drawn),inactive,–
COc1ccc2cnn(CC(=O)Nc3cc(F)cc(F)c3)c(=O)c2c1OC,"inconclusive: 39.8 µM [inhibitor, single point]",–
CCOc1cc(C2C=C(C(=O)O)Nc3ncnn32)ccc1OC(C)C (stereo not drawn),inactive,–
CCn1cc(-c2ccc(OC)cc2)cc1C(=O)NC(C)c1cccnc1 (stereo not drawn),"inconclusive: 31.6 µM [inhibitor, single point]",–
COc1ccc(NC(=O)c2cn3c(nc4ccccc43)c(C#N)c2C)cc1,"inconclusive: 39.8 µM [inhibitor, single point]",–
COc1ccc(-c2ccc(CCC(=O)O)n2NC(=O)c2ccccc2Cl)cc1,inactive,–
O=C(Nc1ccc2nn(-c3ccccc3)nc2c1)c1cc2ccccc2o1,"inconclusive: 2.51 µM [inhibitor, full curve, poor fit]",–
Cc1ccnc(NC(=O)COc2c(C)[nH]ccc2=O)c1,inactive,–
CN(Cc1ccc(-c2ccc(Cl)cc2)o1)C(=O)CNC(=O)c1ccccc1F,inactive,–
S=C(NCc1ccc(Cl)cc1)Nc1ccc(Nc2ccccc2)cc1,inactive,–
CCC(=O)N1c2ccccc2CC1C(=O)NCCc1ccccc1C (stereo not drawn),–,inconclusive: -43.2% [inhibitor]

SMILES,Potency,"activity change, negative = inhibition"
COc1cc(C2C(C#N)=C(N)Oc3n[nH]c(-c4ccccc4)c32)cc(OC)c1OC (stereo not drawn),"inconclusive: 20 µM [inhibitor, single point]",–
CN1CCN(c2ccc(-c3cccc(NC(=O)C4CCCCC4)c3)nn2)CC1,inactive,–
CC(C)CC(=O)n1nc(-c2ccco2)nc1NCc1cccs1,"inconclusive: 39.8 µM [inhibitor, partial curve, poor fit]",–
Cc1c(Cc2ccccc2)c(NCCN(C)C)n2c(nc3ccccc32)c1C#N,"inconclusive: 31.6 µM [inhibitor, partial curve, poor fit]",–
O=C1CCN(S(=O)(=O)c2ccccc2)CCCN(Cc2ccc(C(F)(F)F)cc2)CCN1,inactive,–
Cc1noc(C)c1CCC(=O)NC(c1cnn(C)c1)C1CC(O)C1 (stereo not drawn),inactive,–
Cc1c(Cl)cccc1NC(=O)c1cnc2sc(N3CCOCC3)nn2c1=O,"inconclusive: 28.2 µM [inhibitor, single point]",–
CCNC(=O)NC(=O)CN1CCCC(c2nc3ccccc3o2)C1 (stereo not drawn),inactive,–
O=C(CN1CCCCCC1)NN(Cc1ccccc1)c1ccccc1,"inconclusive: 12.6 µM [inhibitor, partial curve, poor fit]",–
CC(=O)c1cccc(OCC(O)COc2cc3sc(C)nc3c3sccc23)c1 (stereo not drawn),"inconclusive: 20 µM [inhibitor, partial curve, poor fit]",–
O=C(/C=C/c1ccc(O)cc1)c1cccs1,"inconclusive: 25.1 µM [inhibitor, single point]",–
COc1ccccc1-n1nc(-c2c(C)nc3scc(CC(=O)NCc4ccccc4)n3c2=O)cc1C,active: 25.1 µM,–
Fc1ccc(CN2CCNc3cnc(OCc4cccnc4)cc3C2)cc1F,"inconclusive: 35.5 µM [inhibitor, partial curve, poor fit]",–
CN(C)CCOC1c2ccccc2CCc2ccc3ccccc3c21 (stereo not drawn),"inconclusive: 2.51 µM [inhibitor, full curve, poor fit]",–
O=C(NCc1ccccc1)NC[C@H]1Cn2cc(-c3ccccc3)nc2CO1,"inconclusive: 39.8 µM [inhibitor, single point]",–
Cc1ccc(CN(C(=O)c2cc(=O)c3ccccc3o2)C2CCS(=O)(=O)C2)cc1 (stereo not drawn),inactive,–
O=S(=O)(NC1CCCCCCC1)c1ccc(F)cc1,"inconclusive: 39.8 µM [inhibitor, single point]",–
COc1ccc(-c2nc3n(c2C(=O)Nc2cccc(C(F)(F)F)c2)CCS3(=O)=O)cc1,inactive,–
O=C(c1cnc2n[nH]c(-c3ccccc3)c2n1)N1CCN(c2ccccn2)CC1,"inconclusive: 35.5 µM [inhibitor, single point]",–
CCN(C(=O)c1cc2c(s1)-c1c(C)cccc1OC2)c1ccccc1F,"inconclusive: 35.5 µM [inhibitor, partial curve, poor fit]",–
COc1ccc(CCNC(=O)c2nnn3cc(-c4ccccc4)[nH]c(=O)c23)cc1OC,"inconclusive: 25.1 µM [inhibitor, partial curve, poor fit]",–
